# From publication PMC6919601, “Identification of Plasmodium dipeptidyl aminopeptidase allosteric inhibitors by high throughput screening” (PLoS ONE, 2019)
# Screen size: about 110,000 compounds; about 230 (0.21%) showed an effect of 50% or more. Some of the results follow.
# Molecular target: DPAP1 (Plasmodium falciparum, UniProt Q8IIJ9)
# Test: primary screen, percent inhibition; read by cleavage of a fluorogenic dipeptide substrate; higher = more effect of the substance
# Parameters: species or system P. falciparum D10 trophozoite lysates; single well
# 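Further: 30 min substrate incubation versus DMSO and 10 µM JCP410 controls.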
# Chain of DPAP1 (Q8IIJ9 whole entry, looked up): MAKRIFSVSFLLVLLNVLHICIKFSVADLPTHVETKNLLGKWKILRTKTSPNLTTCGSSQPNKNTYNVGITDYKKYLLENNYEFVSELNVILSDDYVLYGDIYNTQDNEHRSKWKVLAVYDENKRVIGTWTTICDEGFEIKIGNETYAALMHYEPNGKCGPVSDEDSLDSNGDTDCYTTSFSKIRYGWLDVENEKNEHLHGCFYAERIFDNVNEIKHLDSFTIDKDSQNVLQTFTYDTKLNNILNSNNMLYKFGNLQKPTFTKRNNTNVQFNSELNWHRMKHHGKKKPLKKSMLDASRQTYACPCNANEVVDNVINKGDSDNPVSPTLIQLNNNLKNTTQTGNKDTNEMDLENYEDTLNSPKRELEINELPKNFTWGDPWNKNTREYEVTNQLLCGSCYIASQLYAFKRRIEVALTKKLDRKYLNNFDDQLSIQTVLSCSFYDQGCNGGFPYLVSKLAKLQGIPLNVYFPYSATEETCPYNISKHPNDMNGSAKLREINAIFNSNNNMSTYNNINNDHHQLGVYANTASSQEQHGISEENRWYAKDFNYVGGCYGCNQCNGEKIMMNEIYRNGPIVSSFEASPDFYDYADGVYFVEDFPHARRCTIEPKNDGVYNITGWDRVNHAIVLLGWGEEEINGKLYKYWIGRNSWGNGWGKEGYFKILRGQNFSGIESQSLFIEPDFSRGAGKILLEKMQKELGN
row,SMILES,% Inhibition @ 10 uM [%]
1,CCOc1ccccc1N(CC(=O)Nc1cccnc1)S(=O)(=O)c1ccc(Cl)cc1,-2.32
2,COc1ccc(-c2cc(C)no2)cc1S(=O)(=O)N1CCC2(CC1)OCCO2,-2.25
3,Cc1nc(CSc2ncnc3sc4c(c23)CCC4)cs1,0.0451
4,COc1ccc(NC(=O)c2ccc(S(=O)(=O)N3CCCCC3C)cc2)cc1 (centres unmarked),21.9
5,Cc1ccc(CCNC(=O)C2CCC(CNS(=O)(=O)c3ccc(C)cc3)CC2)cc1 (centres unmarked),3.74
6,Cc1ccc2nc(Cl)cc(SCC(=O)NCc3ccco3)c2c1,2.73
7,CC(C)CCNCC(O)Cn1nnnc1-c1ccccc1 (centres unmarked),3
8,FC(F)(F)c1ccccc1CN1CCN(c2ccccc2Cl)CC1,3.01
9,CC(=O)Oc1ccc2oc(C)c([N+](=O)[O-])c2c1,-4.58
10,Cc1ccc(CNC(=O)C2CCC(CNc3nc(S)nc4ccccc34)CC2)o1 (centres unmarked),0.907
11,CCSc1c(Cl)cnn(-c2ccccc2)c1=O,6.49
12,O=[N+]([O-])c1ccc(CN2CCC(O)CC2)s1,-4.5
13,O=C(CNC(=O)c1cccc(Cl)c1)Nc1ccc(Br)cc1C(=O)c1ccccc1,0.214
14,C=Cc1ccc(Cn2c(C)c(CNCc3ccc(OCC)c(OC)c3)c(C(=O)O)c2C)cc1,-1.92
15,O=C(Nc1ccc(Cc2ccncc2)cc1)c1ccccc1Br,-1.75
16,CCN(CC)C1=N/C(=C\c2ccccc2)C(=O)N1c1cccc(Cl)c1,-0.425
17,O=C(NCCc1ccccc1F)c1ccc2ccccc2c1,-6.91
18,CCS(=O)(=O)c1nc(S(=O)(=O)c2ccc(Cl)cc2)c(NCCCOC(C)C)s1,-4.04
19,CC12CC3CC(C)(C1)CC(OCCNC(=O)Cn1ncc4c(=O)oc5ccccc5c41)(C3)C2,10.2
20,CCCC/N=C(N)/C(C(=O)c1ccc(OC)cc1)=C(/O)OCC,2.57
21,COc1cc(/C=C2\SC(c3ccc(C)cc3)=NC2=O)ccc1O,2.92
22,CC(=O)c1ccc(OCc2c(C)noc2C)cc1,-1.49
23,O=C(Nc1ccc(Br)cn1)c1cccc2ccccc12,-10.8
24,Cc1ccc(S(=O)(=O)Cc2nc(-c3ccc(C(=O)NCCc4cccs4)cc3)oc2C)cc1,-3.84
25,Cc1ccc2nc(NCCc3ccc(Cl)cc3)c3nnnn3c2c1,0.166

row,SMILES,% Inhibition @ 10 uM [%]
1,O=c1oc2ccccc2cc1-c1csc(-c2cc3c(ccc4ccccc43)oc2=O)n1,0.605
2,O=C(O)C1=NC2NC(c3ccccc3)=CC(=O)N2N1 (centres unmarked),-3.09
3,CC(C)c1[nH]nc2c1C(c1ccccc1)C(C#N)=C(N)O2 (centres unmarked),2.38
4,CC(CCc1ccccc1)N1CCN(C/C=C/c2ccccc2)CC1 (centres unmarked),1.9
5,Cc1c(C(=O)NCCCc2ccccc2)oc2c1-c1n[nH]cc1CC2,-4.68
6,COc1cc(C=C2C(=O)NC(=S)NC2=O)ccc1O,-6.22
7,Nc1c([N+](=O)[O-])cc(Cl)c2c1C(=O)c1ccccc1C2=O,2.7
8,COc1ccc(-c2cc3c(=O)n(CC(=O)N4CCN(C)CC4)ncn3n2)cc1,-1.08
9,CCOC(=O)c1c(C)[nH]c(C)c1S(=O)(=O)NCC(=O)NC1CCCCC1,-2.13
10,Cc1nnc(SCCN2C(=O)c3ccccc3C2=O)nc1O,-1.43
11,CCN(CC)C(=O)c1cc(-c2ccc(C)c(C)c2)[nH]n1,-1.08
12,COc1cc(C(=O)N2CCN(C(=O)c3cc(-c4ccc(C)c(C)c4)[nH]n3)CC2)cc(OC)c1OC,-0.546
13,c1ccc(-c2nn3c(-c4ccccc4)nnc3s2)cc1,3.38
14,Nc1cc(N)cc(-c2nc3ccccc3[nH]2)c1,8.06
15,COc1ccc(Cl)cc1NC(=O)CCCC(=O)Nc1cc(Cl)ccc1OC,-3.63
16,COc1ccccc1OCC(=O)N1CCc2ccccc21,-4.01
17,COc1cccc(-c2nc(CS(=O)(=O)CC(=O)N3CCN(c4ccccn4)CC3)c(C)o2)c1,-3.7
18,Cc1cc(O)ccc1/N=C1/C=C(O)CC(C)(C)C1,4.7
19,CCN(CC)S(=O)(=O)c1ccc(NC(=O)c2ccccc2)cc1,-5.4
20,Cc1n[nH]c(C)c1Nc1nc(-c2ccccc2)c(CC(=O)O)s1,-1.11
21,O=C(NCc1cccs1)c1oc(=O)c2ccccc2c1-c1ccccc1,0.208
22,CCOC(=O)c1nc2nc(-c3cccs3)cc(C(F)(F)F)n2n1,-3.52
23,Cc1cccc(CNCc2c(C(=O)O)n(Cc3ccc(F)cc3Cl)c3cc(C)ccc23)c1,-2.93
24,Cc1cc2c(c(=O)o1)C(c1ccc(Cl)c(Cl)c1)C(C#N)=C(N)O2 (centres unmarked),1.54
25,COc1cc2nc(S)nc(NCCc3ccc(S(N)(=O)=O)cc3)c2cc1OC,4.01
